# Test results as given in PubChem BioAssay AID1345082 (National Center for Advancing Translational Sciences (NCATS), 2018).
# In all, about 94,000 compounds went through this assay and about 4,000 (4.3%) were called active. The inconclusive results got no clear call from the source; some entries with a clear call stand among them for comparison. The call rests on the fitted dose curve; in most records, active means well fitted inhibition curve with a large enough effect; inconclusive means small, poorly fitted or top-dose-only effect; inactive means no such curve, though single readings can be large or run the other way. Where the call is inconclusive, the potency comes from a doubtful curve fit.
# Assay: Cytotoxic Profiling in NIH 3T3 Cell Line of Diverse Libraries Using Quantitative High-Throughput Screening; further: nearly all actives have a fitted effect of over 55% in size
# Settings: NIH 3T3 viability, CellTiter-Glo ATP luminescence, 48-72 h; activity change, negative = cytotoxicity: at 96.7 µM (top of the series); series mostly up to 96.7 µM
# Method in brief: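 Mouse fibroblast NIH 3T3 cells, 400 per well, received compound via pintool and were incubated for 48 or 72 hr prior to CellTiter-Glo ATP luminescence measurement.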
# On the % scale 0 is the no-effect control and ±100 the full control effect; potency means the concentration at half of the fitted maximal effect; tags describe the fitted curve by direction and shape.
SMILES,Potency,"activity change, negative = cytotoxicity"
Cc1ccc(CNC(=O)N2CC(Oc3cccc(-c4nc(C)no4)c3)C2)cc1,"inconclusive: 44.7 µM [inhibitor, partial curve, poor fit]",–
CCOc1ccc(C(=O)N2CCCC(n3cc(-c4nc(C(C)C)no4)nn3)C2)cc1 (centres undefined),–,inactive: -10.6%
Fc1ccc(Nc2nc(-c3ccccc3)no2)cc1,"inconclusive: 39.8 µM [inhibitor, partial curve]",–
c1cncc(-c2nc(CCNc3ncncn3)cs2)c1,–,inactive: -14.5%
Cc1nnc2ccc(NCc3ccc(F)cc3)nn12,"inconclusive: 35.5 µM [inhibitor, partial curve]",–
O=C(c1cc(F)ccc1F)N1CCN(C(=O)c2nnn3c2COC(c2ccc(Cl)cc2)C3)CC1 (centres undefined),–,inactive: -24.9%
Cc1nc2cc(N3CCC(C(=O)O)CC3)cnc2nc1C,"inconclusive: 44.7 µM [inhibitor, partial curve, poor fit]",–
Clc1ccc(CNC2(Cc3cc(COc4ccccc4)on3)COC2)cc1,"inconclusive: 100 µM [inhibitor, partial curve]",–
O=C(CC(c1ccccc1)c1ccccc1Cl)N1CCCC1 (centres undefined),–,inactive: -22.7%
CCN1Cc2cc(OC)ccc2N(C(C)=O)CCC1=O,"inconclusive: 79.4 µM [inhibitor, partial curve, poor fit]",–
COc1cccc(CC2(CO)CCCN(c3ccc(-c4nccn4C)nn3)C2)c1 (centres undefined),"inconclusive: 25.1 µM [inhibitor, full curve, poor fit]",–
O=C(c1cnc2c(c1)N([S+](=O)([O-])c1cccnc1)CCC2)N1CCCC(CO)C1 (centres undefined),"inconclusive: 79.4 µM [inhibitor, partial curve, poor fit]",–
O=C(C1CCCC1)N1CCC2(CC1)CC(CO)N(C(=O)c1ccccc1)C2 (centres undefined),–,inactive: -19.7%
COc1ccc(C(=O)N[C@H](C)c2c(-c3ccc(F)cc3)noc2C(=O)O)cc1,"inconclusive: 112 µM [inhibitor, single point]",–
CNC(=O)c1cc(C2CC2)nc2c1c(C1CCN([S+](=O)([O-])c3cccc(C(F)(F)F)c3)C1)nn2C (centres undefined),"inconclusive: 28.2 µM [inhibitor, partial curve, poor fit]",–
Cc1nn(-c2ccccc2)c2c1C(C(C)C)N(C1CN(C(=O)Cc3cccc(Cl)c3)C1)C2=O (centres undefined),active: 25.1 µM,–
O=C(O)CCC(=O)N1Cc2ccccc2CC2(CCN(CC3CCNC3)C2)C1 (centres undefined),–,inactive: -4.04%
C=CCn1cc2c3c(cccc31)[C@H](CC(C)C)N[C@H](C(=O)NCCOC)C2,active: 89.1 µM,–
CCOC(=O)C1CCCN(C(=O)c2nc3sccn3c2-c2cccc(C#N)c2)C1 (centres undefined),–,inactive: -22.8%
